The RNAGym collection of RNA variant scans (doi:10.1073/pnas.2313332121)
Variants at the floor of the assay are shown more often than the library holds them.

B1: TPR 5TU (parent)
chain: GGAUCUUCUCGAUCUAACAAAAAAGACAAAUCUGCCACAAAGCUUGAGAGCAUCUUCGGAUGCAGAGGCGGCAGCCUUCGGUGGCGCGAUAGCGCCAACGUUCUCAACUAUGACACGCAAAACGCGUGCUCCGUUGAAUGGAGUUUAUCAUG

Variants of: B1
Test: polymerase ribozyme fitness, log enrichment relative to wild type (log ratio); higher = more active; in vitro selection for triplet polymerase activity
Summary of the method: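 Each subunit of a heterodimeric triplet polymerase ribozyme was mutagenized into a library by PCR, transcribed, and subjected to one round of in vitro selection, run in triplicate. Libraries were annealed with a biotinylated primer, the partner subunit and triplets, incubated frozen at −7 °C, and extended constructs were gel-excised, captured on streptavidin beads and recovered by RT-PCR. Input and output libraries were sequenced on Illumina, keeping genotypes with ≥10 input reads and ≥1 read per output. Fitness is log base 2 of genotype enrichment divided by wild-type enrichment, from inverse-variance-weighted replicate averages.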

Polymerase ribozyme fitness (log ratio), ≤ -4.2:
GGCUCUUCUCGAUCUAACAAUAAAGACGAAUCUGCCAGAAAGCUUGAGAGCAUCUUCGGAUGCAGAGGCGGCAGCCUUCGGUGGCGCGAUAGCGCAAACGUUCUCAACUAUGACACGCAAAACGCGUGCUCCGUUGAAUGGAGUUUAUCAUG [A3C A21U A28G C38G C96A]
GGCUCUUCUCGAUUUAACAAAAAAGACAAAUCUGACACAAAGCUUGAGAGCAUCUUCGGAUGCAGAGGCGGCAGCCUUCGGUGGGGCCAUACCGUCAACGUUCUCAACUAUGACACGCAAAUCGCGGGCUCCGUUGAAUGGAGUUUAUCAUG [A3C C14U C35A C85G G88C G92C C95U A122U U127G]
GGCUCUUGUCGAUGUAACAAAAAAGACAAAUCUGCCACAGAGCUUGAGAGCAUCUUCGGAUGCAGCGGCGGCAUACUUCGGAGGCGCGAUAGUGCCAACGUUCUCAACUAUGACACGCAAAACGCGUGCUCCGUUGAAUGCAGUUUAUCAUG [A3C C8G C14G A40G A66C G74U C75A U82A C93U G141C]
GGCUCUUCUCGAUCUAACAAAAAAGACAAUUCUGCCACAAAGCUUGAGAGCAUCUUCGGAUGCAGAGGCGGCAGGCUUCGGUGGCUCGAUAGCGCCAACGUUCUCAACUAUGACAGACAAAACGCGUGAUCCGUUGAAUGGAGUUUAUCAUG [A3C A30U C75G G86U C116G G117A C129A]
GGCUCUUCUCGAUCUAACAAAAAAGACAAAUAUGCCACAAAGCUUAAGAGCAUCUUCGGAUGCAGAGGCGGCAGCCUACGGUGGCGCGAUAGCGCCAACGUUCUCAACUAUGACACGCAAAACGCGUGCUCCGUUGAAUGGAGUUUAUCAUG [A3C C32A G46A U78A]
GGCUCUUAUCGAUCUAACAAAAAAGACAAAUCUGCCACAAAGCUUGAGAGCAUCUUCGGAGGCAGAGGCGGCAGCCUUCGGUGACGCGAUAGAGCCAACGUUCUCAACUAUGACACGCAAAACGCGUGCUCCGUUGAAUGCAGUUUAUCAUG [A3C C8A U61G G84A C93A G141C]
GGCUCUUCUCGAUCUAACAAAAAAGACAAAUCUGCCACAAAGCUUGAGAGCAUCUUCGGAUACAGAGGCGGCAGCCUACGGUGACGCGAUAGCGCCAACGUUCUCAACUAUGACACGCAAAACGCGUGCUCCGUUGAAUGGAGUUUAUGAUG [A3C G62A U78A G84A C149G]
GGCUCUUCUCGCUUUAACAAAAAAGACAAAUCUGCCACAAAGCUUGACGGCAUCUUCGGUCGCAGAGGCGGCAGCCUUCGGUGGGGCGAUAGCGCCAACGUUCUCAACUAUGACACGCAAAACGCGUGCUCCGUUUAAUGGAGUUUAUCAUG [A3C A12C C14U G48C A49G A60U U61C C85G G136U]
GGCUCUUCACGAUCUAACCAAAAAGAAAACGCUGCCACAAAGCUUGAGAGCAUCUUCGGAUGCAGAGGCGGCAGCCUUGGGUGGCGCUAUAGGGCCAACGUUCUCAACUCUGACACGCAAAACGCGUGGUCCGUUGAAGGGAGUUUAUCAUG [A3C U9A A19C C27A A30C U31G C79G G88U C93G A110C C129G U139G]
GGCUCUUCUCGAUCUAACAAAAAAGACAAAUCUGCCACAAAGCUUGAGAGCAUCUUCGGAUGCAGAGGCGGCAGCAUUCGGUGGCGCGAUAACGCCAACGUUCUCAACUAUGACACGCAAAACGCGUGCUCCGUUGAAUGGAGUUUAUCAUG [A3C C76A G92A]
GGCUCUUCUCGAUCUAACAAAAUCGACAAAUCUGUCACAAAGCUUGAUAGCAUCUUCGGAUGCAGAGGCGGCAGCCUUCGGAGGCGCGAUAGCGCCAACGUUCUCAACUAUGACAUGCAAAACGCGUGCUCCGUUGAAUGGAGUUUAUCAUG [A3C A23U A24C C35U G48U U82A C116U]
GGGUCUUCUCGGUCUAACAAAAAGGACAAAUCUGCCACAAACCAUGAGAGCAUCUUCGGAUGCAGAGGCGGCAGCCUUCGGUGGCGCCAUAGCGCCAACGUUCUAAACUAUGUCACGCAAUACGAGUGCUCCGUUGAAUGGAGUUUAUCAUG [A3G A12G A24G G42C U44A G88C C105A A113U A121U C125A]
GGGUCUUCUCGGUCUGACAAAGAAGACACAUCUGCCACAAAGCUUGAGAGCAUCGUCGGAGGCAGAGGCGGCAGUCUUCGGUGGCGCGAUAUCGCCAACGUUCUCAACUAUGACACGCAAAACGCGUGCGCCGUUGAAUGGAGUUUAUCAUG [A3G A12G A16G A22G A29C U55G U61G C75U G92U U130G]
GGCUCUUCUCGAUCUAACAAAAAAGACAAAUCUGCCACAAAGCUCGAGAGCAUCGUCGGAUGCAGAGGCGGCAGCCUUCGGUGGCGCGAUAGCGCCAACGUUGUCAACUAUGACACGCAAAACGCGUGCUCCGUUGAAUGGAGUUUAUCAUG [A3C U45C U55G C103G]
GGCUCUUCUCGAUGUACCAAAAAAGACAAAUCUGCCAUAAAGCUUGAGAGCUUCUUCGGGUGCAGAGGCGGCAGCCUUCGGUGGCGCGAUAGCGCCAACGUUCUCAACUAUGACACGCAAAACGCGAGCUCCGUUGAAUGGAGUUUAUCAGG [A3C C14G A17C C38U A52U A60G U127A U151G]
GGCUCUUCUCGAUCUAACUAAAAAGACAAAUCUGCCUCAAAGCUUGAGAGCAUCUUCGGUUGCAGAGGCGGCAACCUUCAGUGGCGCGAUAGCGCCAAAGUUAUCAACUAUGACACGCAAAACGCGUGCUCCGUUGAAUGGAGUUUAUCAUG [A3C A19U A37U A60U G74A G80A C99A C103A]
GGCUCUUCUCGAUCUAACAAAAAAGACAAAUCUGCCACAAAGCUUGAGAGCAUAUUCGGAUGCAGAGGCGGCAGCCUUCGGUGGCGCGAUAGCUCCAACGUUCUCAACUAUGACACGCAAAACGCGUGCUCCGUUGAAUGGAGUUUAUCAUG [A3C C54A G94U]
GGCUCUUCUCGAUCUAACAAAAAAGUCAAAUCUGCCACAAAGCUUGAGAUCAUCUUCGGAUGCAGAGGCGGCAGCCUUCGGUGGCGCGAUAGAGCAAUCGUUCUCAACUAUGACACGCAAAACGCGUGCUCCGUUGAAUGGAGUUUAUCAUG [A3C A26U G50U C93A C96A A98U]
GGCUCUUCUCGAUCUAACAAAAACGACAAAUCUGCCACAUAGCUUGAGAGCAUCUUCGGAAACAGAGCCGGCAGCCUUCGGUGGUGCGAUACCGCCAACGUUCUCAACUAUGACACGCAAAACGCGUGCUUCGUUUAAUGGAGUUUAUCAUG [A3C A24C A40U U61A G62A G68C C85U G92C C131U G136U]
